One may read the melting point as the temperature of the solid-liquid transition.

Counter-ions that a name gives are not always drawn. Like-named read-outs stand apart in the source and are kept apart here. Entries with a single value are a further part of the results.

Here are results for one compound from patent US8669247B2, “2,5-disubstituted arylsulfonamide CCR3 antagonists” (Axikin Pharmaceuticals, Inc., priority 2009, dated 2014).

On to `N#Cc1ccc(Sc2cc(Cl)ccc2Cl)c(S(=O)(=O)N2CCNCC2)c1` (as salt: hydrochloride) [Compound 76, 4-(2,5-Dichlorophenylthio)-3-(piperazin-1-ylsulfonyl)benzonitrile], for which the melting point is 156 to 162 °C (dihydrochloride salt) and 190 to 194 °C (free base).
